In the antibiotic and cytotoxicity screens of Wong et al. (2023):
This is one part of the list.

test system: HSkMC (human skeletal muscle cells); experiment: cytotoxicity call (relative viability < 0.9); details: 10 µM

Row | Compound | cytotoxicity call
1 | CC(C)C[C@H](NC(=O)[C@H](CCCCN)NC(=O)CNC(=O)[C@H](CC(C)C)NC(=O)[C@@H](NC(=O)[C@@H]1CSSC[C@H](N)C(=O)N[C@@H](CO)C(=O)N[C@@H](CC(N)=O)C(=O)N[C@@H](CC(C)C)C(=O)N[C@@H](CO)C(=O)N[C@@H]([C@@H](C)O)C(=O)N1)C(C)C)C(=O)N[C@@H](CO)C(=O)N[C@@H](CCC(N)=O)C(=O)N[C@@H](CCC(=O)O)C(=O)N[C@@H](CC(C)C)C(=O)N[C@@H](Cc1c[nH]cn1)C(=O)N[C@@H](CCCCN)C(=O)N[C@@H](CC(C)C)C(=O)N[C@@H](CCC(N)=O)C(=O)N[C@H](C(=O)N[C@@H](Cc1ccc(O)cc1)C(=O)N1CCC[C@H]1C(=O)N[C@@H](CCCNC(=N)N)C(=O)N[C@H](C(=O)N[C@@H](CC(=O)O)C(=O)N[C@H](C(=O)NCC(=O)N[C@@H](C)C(=O)NCC(=O)N[C@H](C(=O)N1CCC[C@H]1C(N)=O)[C@@H](C)O)C(C)C)[C@@H](C)O)[C@@H](C)O | inactive
2 | C[C@@H]1CN([C@@H](C)CO)S(=O)(=O)c2ccc(/C=C/c3ccccc3)cc2O[C@H]1CN(C)C(=O)CN1CCOCC1 | inactive
3 | C=CCOC(=O)[C@H]1[C@@H]2C(=O)O[C@@H](c3ccccc3)[C@@H](c3ccccc3)N2[C@@H](c2ccc(OCCOC(=O)[C@@H]3C[C@@H]4C(=O)N[C@@H](CC(C)C)C(=O)N4[C@@H]3c3ccc(O)cc3)cc2)[C@]12C(=O)Nc1ccc(I)cc12 | inactive
4 | C[C@@H]1CCCCO[C@@H](CN(C)S(=O)(=O)c2cn(C)cn2)[C@H](C)CN([C@@H](C)CO)C(=O)c2cc(NS(=O)(=O)c3cccs3)ccc2O1 | inactive
